Laboratory results as given in the supplement of paper PMC10369915.
The other results are listed elsewhere or left out. Cut-off read from the data, not from the text of the source: active = 3.2 or more and inactive = the rest. The signal is at background level for most entries.

B1: PROS1_Y266_C267S (peptide)
chain: GGYTCYSDGKK
B2: PRKDC_Y647_YF (peptide)
chain: FEPWVYSFSFE
B3: PROS1_Y259_N258S (peptide)
chain: QLCVSYPGGYT
B4: PRC1_Y511 (peptide)
chain: FGGTVYHSPVS
B5: PROS1_Y266_YF (peptide)
chain: GGFTCYCDGKK
B6: PSEN1_Y154_Y159F_YF (peptide)
chain: LLVVLYKFRCF
B7: PRKCI_Y125_R130C (peptide)
chain: EDKSIYRRGAC
B8: PRKAR1A_Y323 (peptide)
chain: LGPSDYFGEIA
B9: PSEN1_Y256 (peptide)
chain: AVISVYDLVAV
B10: PSEN1_Y154_Y154C_YF (peptide)
chain: LLVVLCKFRCF
B11: PPT1_Y172_Q177E (peptide)
chain: LNAGAYSKVVE
B12: PRKCI_Y125 (peptide)
chain: EDKSIYRRGAR
B13: PRKCI_Y430 (peptide)
chain: LRGEDYGFSVD
B14: PPA2_Y59 (peptide)
chain: NVTGHYISPFH
B15: PPFIBP2_Y663 (peptide)
chain: RRMLQYLTVND
B16: PRIM2_Y201_D204G (peptide)
chain: RGRKVYLEGGF
B17: PPP1R11_Y64_A69S (peptide)
chain: KCCCIYEKPRS
B18: PRKRIP1_Y90 (peptide)
chain: LRRREYQRQDY
B19: PRKDC_Y647_F649L (peptide)
chain: FEPWVYSLSYE
B20: PRKCD_Y64 (peptide)
chain: FDAHIYEGRVI
B21: PPP2CA_Y86 (peptide)
chain: LFMGDYVDRGY
B22: PSEN1_Y154 (peptide)
chain: LLVVLYKYRCY
B23: PRC1_Y464 (peptide)
chain: ETEMLYGSAPR
B24: PRKG1_Y247_I249V (peptide)
chain: YENGEYIVRQG
B25: PRKCD_Y64_R67C (peptide)
chain: FDAHIYEGCVI
B26: PRKCG_Y529_P524R (peptide)
chain: REIIAYQPYGK
B27: PRAG1_Y132_R137G (peptide)
chain: DAPVVYLGSFG
B28: PSEN1_Y256_V261F (peptide)
chain: AVISVYDLVAF
B29: PRDX3_Y172 (peptide)
chain: QISRDYGVLLE
B30: PPP1CB_Y254_D252Y (peptide)
chain: VVEYGYEFFAK
B31: PRKCD_Y374_F375S (peptide)
chain: KGRGEYSAIKA
B32: PSEN1_Y240_L235V (peptide)
chain: VVFIKYLPEWT
B33: PPP1CB_Y254_D252Y_YF (peptide)
chain: VVEFGYEFFAK
B34: PRKAR1A_Y373_Y373C (peptide)
chain: RNIQQCNSFVS
B35: PPP2CA_Y86_YF (peptide)
chain: LFMGDYVDRGF
B36: PRKCZ_Y263 (peptide)
chain: IGRGSYAKVLL
B37: PRKN_Y391_D394N (peptide)
chain: TTTQAYRVNER

Each binder was assayed against SHP2 C-SH2 domain E139D (assay: enrichment score (SH2-bound / input frequency) (ratio); bacterial display of known human phosphotyrosine sites (pTyr-Var adds point mutants) read by sequencing; higher = stronger binding; tyrosines were phosphorylated by kinases first). Conditions: peptide library: pTyr-Var.
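Note: displayed peptides selected on beads carrying the immobilized SH2 domain, with library peptides lacking any tyrosine serving as negative controls.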

| Binder | enrichment score |
| --- | --- |
| B1 | inactive: 0.895 |
| B2 | inactive: 1.05 |
| B3 | inactive: 0.766 |
| B4 | inactive: 1.04 |
| B5 | inactive: 1.35 |
| B6 | inactive: 2.68 |
| B7 | inactive: 0.422 |
| B8 | inactive: 0.709 |
| B9 | inactive: 1.5 |
| B10 | inactive: 2.4 |
| B11 | inactive: 0.763 |
| B12 | inactive: 0.38 |
| B13 | inactive: 0.816 |
| B14 | inactive: 1.24 |
| B15 | inactive: 0.574 |
| B16 | inactive: 0.256 |
| B17 | inactive: 0.93 |
| B18 | inactive: 0.316 |
| B19 | inactive: 0.818 |

| Binder | enrichment score |
| --- | --- |
| B20 | inactive: 1.02 |
| B21 | inactive: 1.72 |
| B22 | inactive: 2.89 |
| B23 | inactive: 0.693 |
| B24 | inactive: 2.33 |
| B25 | inactive: 0.826 |
| B26 | inactive: 0.857 |
| B27 | inactive: 0.773 |
| B28 | inactive: 1.48 |
| B29 | inactive: 0.518 |
| B30 | inactive: 1.4 |
| B31 | inactive: 1.11 |
| B32 | active: 3.75 |
| B33 | inactive: 1.58 |
| B34 | inactive: 0.664 |
| B35 | inactive: 1.45 |
| B36 | inactive: 1.91 |
| B37 | inactive: 0.658 |

What follows are binders tested against SHP2 C-SH2 domain wild-type in the same assay as above. Conditions: peptide library: pTyr-Var.

| Binder | enrichment score |
| --- | --- |
| B1 | inactive: 1.41 |
| B2 | inactive: 0.994 |
| B3 | inactive: 1.1 |
| B4 | inactive: 1.55 |
| B5 | inactive: 1.53 |
| B6 | inactive: 2.27 |
| B7 | inactive: 0.486 |
| B8 | inactive: 0.77 |
| B9 | inactive: 1.67 |
| B10 | inactive: 2.63 |
| B11 | inactive: 0.901 |
| B12 | inactive: 0.256 |
| B13 | inactive: 0.975 |
| B14 | inactive: 0.895 |
| B15 | inactive: 0.457 |
| B16 | inactive: 0.342 |
| B17 | inactive: 1.09 |
| B18 | inactive: 0.261 |
| B19 | inactive: 0.733 |

| Binder | enrichment score |
| --- | --- |
| B20 | inactive: 0.84 |
| B21 | inactive: 1.51 |
| B22 | inactive: 2.95 |
| B23 | inactive: 0.5 |
| B24 | inactive: 1.76 |
| B25 | inactive: 1.22 |
| B26 | inactive: 0.995 |
| B27 | inactive: 1.99 |
| B28 | inactive: 1.29 |
| B29 | inactive: 0.783 |
| B30 | inactive: 1.66 |
| B31 | inactive: 1.66 |
| B32 | active: 4.32 |
| B33 | inactive: 1.04 |
| B34 | inactive: 0.693 |
| B35 | inactive: 1.39 |
| B36 | active: 4.15 |
| B37 | inactive: 0.518 |

What follows are binders tested against SHP2 N-SH2 domain L43F in the same assay as above. Conditions: peptide library: pTyr-Var.

| Binder | enrichment score |
| --- | --- |
| B1 | inactive: 0.983 |
| B2 | inactive: 1.37 |
| B3 | inactive: 0.894 |
| B4 | inactive: 0.942 |
| B5 | inactive: 1.29 |
| B6 | inactive: 1.78 |
| B7 | inactive: 0.473 |
| B8 | inactive: 0.714 |
| B9 | inactive: 1.86 |
| B10 | inactive: 2.43 |
| B11 | inactive: 0.833 |
| B12 | inactive: 0.204 |
| B13 | inactive: 0.865 |
| B14 | active: 9.62 |
| B15 | inactive: 0.833 |
| B16 | inactive: 0.337 |
| B17 | inactive: 0.935 |
| B18 | inactive: 0.324 |
| B19 | inactive: 1.29 |

| Binder | enrichment score |
| --- | --- |
| B20 | inactive: 0.969 |
| B21 | inactive: 1.42 |
| B22 | inactive: 2.39 |
| B23 | inactive: 0.581 |
| B24 | inactive: 2.26 |
| B25 | inactive: 0.89 |
| B26 | inactive: 0.805 |
| B27 | inactive: 0.896 |
| B28 | inactive: 1.49 |
| B29 | inactive: 0.696 |
| B30 | inactive: 1.37 |
| B31 | inactive: 0.832 |
| B32 | active: 3.63 |
| B33 | inactive: 1.54 |
| B34 | inactive: 0.665 |
| B35 | inactive: 1.11 |
| B36 | inactive: 2.33 |
| B37 | inactive: 0.561 |

These binders were tested against SHP2 N-SH2 domain T42A in the same assay as above. Conditions: peptide library: pTyr-Var.

| Binder | enrichment score |
| --- | --- |
| B1 | inactive: 0.88 |
| B2 | inactive: 1.22 |
| B3 | inactive: 0.7 |
| B4 | inactive: 1.09 |
| B5 | inactive: 1.01 |
| B6 | inactive: 1.97 |
| B7 | inactive: 0.437 |
| B8 | inactive: 0.717 |
| B9 | inactive: 1.57 |
| B10 | inactive: 1.81 |
| B11 | inactive: 0.602 |
| B12 | inactive: 0.239 |
| B13 | inactive: 0.6 |
| B14 | active: 5.58 |
| B15 | inactive: 0.823 |
| B16 | inactive: 0.231 |
| B17 | inactive: 0.759 |
| B18 | inactive: 0.347 |
| B19 | inactive: 0.867 |

| Binder | enrichment score |
| --- | --- |
| B20 | inactive: 0.907 |
| B21 | inactive: 1.15 |
| B22 | inactive: 1.75 |
| B23 | inactive: 0.542 |
| B24 | inactive: 2.07 |
| B25 | inactive: 0.72 |
| B26 | inactive: 0.775 |
| B27 | inactive: 2.65 |
| B28 | inactive: 1.43 |
| B29 | inactive: 0.634 |
| B30 | inactive: 1.48 |
| B31 | inactive: 0.925 |
| B32 | active: 3.37 |
| B33 | inactive: 1.42 |
| B34 | inactive: 0.596 |
| B35 | inactive: 1.43 |
| B36 | active: 4.06 |
| B37 | inactive: 0.523 |

What follows are binders tested against SHP2 N-SH2 domain T52S in the same assay as above. Conditions: peptide library: pTyr-Var.

| Binder | enrichment score |
| --- | --- |
| B1 | inactive: 1.07 |
| B2 | inactive: 1.16 |
| B3 | inactive: 0.716 |
| B4 | inactive: 0.82 |
| B5 | inactive: 1.04 |
| B6 | inactive: 2.17 |
| B7 | inactive: 0.499 |
| B8 | inactive: 0.904 |
| B9 | inactive: 2 |
| B10 | inactive: 2.32 |
| B11 | inactive: 0.647 |
| B12 | inactive: 0.218 |
| B13 | inactive: 0.766 |
| B14 | active: 10.4 |
| B15 | inactive: 0.852 |
| B16 | inactive: 0.281 |
| B17 | inactive: 0.982 |
| B18 | inactive: 0.371 |
| B19 | inactive: 1.39 |

| Binder | enrichment score |
| --- | --- |
| B20 | inactive: 0.9 |
| B21 | inactive: 1.43 |
| B22 | active: 3.96 |
| B23 | inactive: 0.537 |
| B24 | inactive: 2.45 |
| B25 | inactive: 0.768 |
| B26 | inactive: 0.724 |
| B27 | inactive: 0.858 |
| B28 | inactive: 1.46 |
| B29 | inactive: 0.723 |
| B30 | inactive: 1.17 |
| B31 | inactive: 0.974 |
| B32 | active: 3.78 |
| B33 | inactive: 1.25 |
| B34 | inactive: 0.687 |
| B35 | inactive: 1.11 |
| B36 | inactive: 2.37 |
| B37 | inactive: 0.552 |

What follows are binders tested against SHP2 N-SH2 domain wild-type in the same assay as above. Conditions: peptide library: pTyr-Var.

| Binder | enrichment score |
| --- | --- |
| B1 | inactive: 1.12 |
| B2 | inactive: 1.54 |
| B3 | inactive: 0.941 |
| B4 | inactive: 1.08 |
| B5 | inactive: 1.47 |
| B6 | inactive: 2.12 |
| B7 | inactive: 0.562 |
| B8 | inactive: 0.869 |
| B9 | inactive: 1.78 |
| B10 | inactive: 2.52 |
| B11 | inactive: 0.608 |
| B12 | inactive: 0.231 |
| B13 | inactive: 1.04 |
| B14 | active: 4.74 |
| B15 | inactive: 0.665 |
| B16 | inactive: 0.292 |
| B17 | inactive: 1.17 |
| B18 | inactive: 0.313 |
| B19 | inactive: 0.776 |

| Binder | enrichment score |
| --- | --- |
| B20 | inactive: 0.853 |
| B21 | inactive: 1.59 |
| B22 | inactive: 2.74 |
| B23 | inactive: 0.601 |
| B24 | inactive: 2.32 |
| B25 | inactive: 1.39 |
| B26 | inactive: 0.781 |
| B27 | inactive: 0.963 |
| B28 | inactive: 1.55 |
| B29 | inactive: 0.681 |
| B30 | inactive: 1.44 |
| B31 | inactive: 0.785 |
| B32 | active: 4.32 |
| B33 | inactive: 1.09 |
| B34 | inactive: 0.787 |
| B35 | inactive: 1.22 |
| B36 | inactive: 1.22 |
| B37 | inactive: 0.787 |
